Results as given in the RNAGym collection of RNA variant scans (doi:10.1073/pnas.2313332121).
Variants at the floor of the assay are shown more often than the library holds them.

B1: TPR 5TU (parent)
chain: GGAUCUUCUCGAUCUAACAAAAAAGACAAAUCUGCCACAAAGCUUGAGAGCAUCUUCGGAUGCAGAGGCGGCAGCCUUCGGUGGCGCGAUAGCGCCAACGUUCUCAACUAUGACACGCAAAACGCGUGCUCCGUUGAAUGGAGUUUAUCAUG

Variants of: B1
Experiment: polymerase ribozyme fitness, log enrichment relative to wild type (log ratio); higher = more active; in vitro selection for triplet polymerase activity
How it was run: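 For each subunit of a heterodimeric triplet polymerase ribozyme, a mutant library was built by PCR and transcribed, then taken through a single in vitro selection round in triplicate. Selection involved annealing to a biotinylated primer, the partner subunit and triplets, incubation frozen at −7 °C, gel excision of extended constructs, capture on streptavidin beads and RT-PCR. Genotypes were retained after Illumina sequencing of inputs and outputs only with ≥10 input reads and ≥1 read in each output. Fitness is defined as the logarithm of a genotype's enrichment relative to wild-type enrichment, using inverse-variance-weighted averages across replicates, with the logarithm taken to base 2.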

Polymerase ribozyme fitness (log ratio), -1.44:
C27U C118U

Polymerase ribozyme fitness (log ratio), -2.39:
C27U C95U

Polymerase ribozyme fitness (log ratio), -1.55:
C27U C76U G83A

Polymerase ribozyme fitness (log ratio), -4.19:
C27U C72U G88A G94A G152A
C27U A47G C93A

Polymerase ribozyme fitness (log ratio), -3.59:
C27U G84A A89G

Polymerase ribozyme fitness (log ratio), -3.88:
C27U U53A C85G

Polymerase ribozyme fitness (log ratio), -3.76:
A28G A41G U45A G94C A97U

Polymerase ribozyme fitness (log ratio), -3.97:
A28U C54U C76A C114U
A28G C75G G88A U139G G141C

Polymerase ribozyme fitness (log ratio), -4.1:
C27U A28C U44G A52C C93A

Polymerase ribozyme fitness (log ratio), -3.3:
C27U C51G
C27U C93U

Polymerase ribozyme fitness (log ratio), -2.73:
C27U G94A

Polymerase ribozyme fitness (log ratio), -3.69:
A28G U31G C36A U56A C95A G141C

Polymerase ribozyme fitness (log ratio), -2.49:
C27U A49G

Polymerase ribozyme fitness (log ratio), -4.04:
C27G G141U

Polymerase ribozyme fitness (log ratio), -3.87:
C27U C36A C108G U139G U145C

Polymerase ribozyme fitness (log ratio), -3.7:
A28G U56A

Polymerase ribozyme fitness (log ratio), ≤ -4.2:
C27U C35U U53A U56G C57A C93A A113C A122G U146A C149G
A28C A60G A66G U77G
A28U C35A C75G U77A A91U C96U G141A
A28G C93U C118A
A28U A39G G67U C75A
A28U A37U A73G G92U A106G C118G
A28G G50U C51U G59C U77A U144A
A28U A119U
C27U G48A C69A C96A A121G
C27G U53A C79A C87U A113U A138C
A28C G34U U53A C105G A147C
C27U A66G C87A C116A
A28G A52C U53C C57U C87A G141A
A28U A41G U82A G83C C87A C108U G143U
C27U C76G U127A
A28G U53A C76A G100C G128A
A28U A37C G42U C76U U78G
A28U C32U A47U C85G G128U U130C
C27G U44G A64C U144G
A28C C38U G70C
C27U A28U U55C C87U G94A C125A G126U
A28C G59U A91G U135C
A28C A37G G48C C87A A97U C125U
A28C A137U
C27G G81C C95G G140U U146A
A28U C35U G86U
A28G U53A U130G
C27U A28U U53G C93A
A28C A47U G81U G86U U127A
C27U G62A G70U C87G C131A G140C A150G
A28U A39U U44A C57U C75U C87U A106U
C27U C43U A91G G92A A121G
A28C G46C A64C G65A U151G
A28G G34A G83C C118G
A28G C76U C96A U151G
C27U C79G G86A G94A C131U U146G
A28C U33G C54U A120G
C27U C87G C118U G141C C149G
A28C C51U U77C C79G G84U G100U C132G
C27G U55G G59C A60U C95U A98U G140A U144A
C27U C43G C76G G88C G126A
A28U A73U A91G C125A A137C
A28C A41G C51A U78G G80U G88A C96G U135A G141A
C27U A29C C72U C93U A106U
A28U A30G C38U G117A
A28U A30C C79A
A28C U56A C72U C76G
A28G U53A U56A G67C U145G
A28C G50A U56C
C27G U102G G133A U151A
C27U A52U A64G C96U G124A
A28C C54A C95A C105U U145A
A28G A49C C76U G94U A150G
A28C C93A
A28C G46C C76G U82A A89C G124A
A28C U77G U90C C114U
A28C G84U A97C
A28U C36G G71U C95U C123U
C27U C32U A47U C85G A150C
A28G A40G G50U C51A C99U A110U C132U
A28G G70C G133C
A28G A37C C57A C85A U134G G136C
A28U C35U A39C G68C C76U C85G U135G
A28G A40U G62A C63G C108A G128U
C27U U45A G71A C75A A89U C118A
A28U A52U C75U C87U C93G
A28C C32U U56C C79A C87G G136A
C27U A89U C96U A138G U146G
C27U C32G C35G A138C U139A G141A U146G
C27U C87A C116G A137G
A28U A37G A52G U55A G58C C95A U145C C149G
C27U C38A U82G C114A A142U
C27U C43A G70A A73G C85U A98C G143C U146C
C27U U45A G46U C51U C57A U77A A91U U127C
A28C A64C C96A C116G U146G
C27G U77G G84U U135G
C27U G65U A121G G141U U148G
A28C A40C G81A G94A G133A G141U
C27G U33G A52C G88C A119G A121G C123G A142G
C27U G48U G141A U148C
A28U A49C C57A A91U U134G
A28U A89C
A28G A29U A89C G141C
C27U U139A
A28U A37C U55A A106C U134G G140A
A28U C54A G92U C118U G124U C131A A137U
A28G A39C U55A U56A G62C C76G A107G
A28G C51G G94U
A28G C36G A52U C87A A89U
C27G U33C G68U
A28U A30G C85G
A28C C93A C105A A115G A122G C129U
C27U A47U C69U C93G U109G
C27U C35U A49U C51G U53A G86U U151G
A28C G67A G100C A119G C131U U145G
A28C U82G G88C G152A
A28C U55G G68A G100A
A28U C51U A110G
A28C C69U
A28U A40U G48A A119U U127C U146G
A28C U45A G92U U134G
A28U A37G G50C A91C G92U G152A
A28C G59C G92U A120U U145C
A28U A41U G65A C75G G81A A150U
C27U A39C G50U C123A
A28C A30U G59A C72A C96U
C27U U53A U61A C69G G88C
A28G A29U A37C C85A G141C
C27U A41G A52C U61A G68A G94U U148A
A28U A40U U82C U148A
A28U A29U U61A G81A C93A
A28U C32G C36U U44G U77C C79U G83C G92U C118A G128C A138G C149G
A28U C43U A52C U55A A91U C105G G136C U151A
A28C C76G C95U
C27U C76G G84U
A28U A47U G62A G83A G84C C131G
C27U A52C U56C C75U C96U C105U
C27U G50C C87A C105G
A28U A47C G74C C95U A142C C149A
A28U A40U G50U C87U U111G
A28C U33C C93A G126C
A28U A41C G88C
A28C G59U G92A C95U A107G
A28U C32A C85G G141U
A28U C54A A91C C95A
C27U A52U U82G C114G
A28G A60C C93U C131A G141C
C27U U44G U56A G58C U61A G86U U135C
A28U A39U
C27U C32G G68U A137G
A28U A30C U56A G59A A66G C85U C103A C118G G141U U145C
A28C C36U U44C G59A U82C C85A A97U C108U C114U C131G A137C U151A
C27G U55A U56A G58U
A28C A39U
A28U A29G C32U C57G
C27U C54U C72U C85U U101G G117A G143A U145G
C27U G86A U145A G152A
C27U U61G U82G A89U A91G G100A A113U G140U
A28G U53A C76A U78G A91U C95U
C27U G86U C99G
A28C C43U C76G A110G A138U

Polymerase ribozyme fitness (log ratio), -1.25:
C27U C75U

Polymerase ribozyme fitness (log ratio), -3.11:
C27U C93U U104A

Polymerase ribozyme fitness (log ratio), -3.06:
C27U A97U C116U A120C

Polymerase ribozyme fitness (log ratio), -1.57:
C27U G58C C123U

Polymerase ribozyme fitness (log ratio), -2.31:
C27U A41C G81U C96A

Polymerase ribozyme fitness (log ratio), -3.03:
C27U C87U A142U

Polymerase ribozyme fitness (log ratio), -3.95:
C27U A40C U55A C114U U139G
